{"source": "PubChem BioAssay AID720709", "about": "(National Center for Advancing Translational Sciences (NCATS), 2013)", "note": "The campaign covered roughly 360,000 compounds. About 520 (0.14%) were called active. This list was built around the results that the source calls inconclusive (neither active nor inactive); the mix of calls is not that of the screen. Calls follow the shape of the dose curve; as a rule, active = well fitted inhibition curve with a large enough effect; inconclusive = small, poorly fitted or top-dose-only effect; inactive = no such curve, though single readings can be large or run the other way. No potency is given beside an inconclusive call; the fits are too rough. Where a SMILES comes first, the peptide text is derived from it. [ ]: non-standard residue; d: D form. The star is where a group is joined. ξ: configuration not given here. ξF = NC(Cc1ccccc1)C(=O)O; Cbz = O=C(OCc1ccccc1)*", "data": [{"target": "Rap guanine nucleotide exchange factor 3 (Homo sapiens) (UniProt O95398)", "sequence (O95398 whole entry, looked up)": "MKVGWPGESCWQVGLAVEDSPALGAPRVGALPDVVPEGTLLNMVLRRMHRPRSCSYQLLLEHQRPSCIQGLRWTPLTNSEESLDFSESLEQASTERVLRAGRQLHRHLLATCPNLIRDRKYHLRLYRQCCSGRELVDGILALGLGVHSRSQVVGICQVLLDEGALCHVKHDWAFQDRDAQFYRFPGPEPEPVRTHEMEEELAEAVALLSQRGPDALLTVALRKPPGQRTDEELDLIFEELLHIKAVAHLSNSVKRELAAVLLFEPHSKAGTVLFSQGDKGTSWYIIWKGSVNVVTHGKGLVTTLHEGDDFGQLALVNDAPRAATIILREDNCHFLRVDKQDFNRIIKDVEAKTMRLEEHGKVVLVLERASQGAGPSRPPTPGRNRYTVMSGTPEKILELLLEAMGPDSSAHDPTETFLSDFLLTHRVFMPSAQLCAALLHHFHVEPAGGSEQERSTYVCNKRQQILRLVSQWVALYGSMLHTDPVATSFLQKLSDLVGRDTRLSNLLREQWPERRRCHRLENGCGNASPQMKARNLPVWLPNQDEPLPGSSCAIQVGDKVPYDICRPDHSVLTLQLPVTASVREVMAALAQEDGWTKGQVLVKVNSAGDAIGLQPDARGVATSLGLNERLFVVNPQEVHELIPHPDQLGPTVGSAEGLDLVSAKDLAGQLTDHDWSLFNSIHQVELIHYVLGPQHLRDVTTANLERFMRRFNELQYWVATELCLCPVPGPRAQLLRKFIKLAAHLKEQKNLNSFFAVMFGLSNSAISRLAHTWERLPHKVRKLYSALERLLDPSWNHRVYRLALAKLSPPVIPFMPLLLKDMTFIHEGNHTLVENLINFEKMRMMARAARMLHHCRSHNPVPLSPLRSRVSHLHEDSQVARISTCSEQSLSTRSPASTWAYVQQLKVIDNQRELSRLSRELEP", "test": "qHTS for Antagonist of cAMP-regulated guanine nucleotide exchange factor 3 (EPAC1): primary screen; also: nearly all actives have a fitted effect of over 50% in size; also: potency is read from the fitted curve at half-maximal effect; tags tell the direction and shape of the fitted curve;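 as to activity change, negative = inhibition: plate controls were vehicle for no effect and positive control for full effect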", "conditions": "EPAC1 GEF assay, Rap1b-BODIPY-GDP exchange fluorescence; activity change, negative = inhibition: at 115 µM (top of the series)", "values": [{"smiles": "CCCN(CC(=O)Nc1ccccc1OC)C(=O)CSc1ccc(Br)cc1C", "Potency": "inconclusive [inhibitor, partial curve]"}, {"smiles": "COc1ccc2nc(NC(=O)c3ccc(NS(=O)(=O)c4cccs4)cc3)sc2c1", "Potency": "inconclusive [inhibitor, partial curve, poor fit]"}, {"smiles": "CC(=O)Nc1ccc(N=Nc2ccccc2)cc1", "Potency": "inconclusive [inhibitor, single point]"}, {"smiles": "CCCn1c(CN2CCN(C(=O)c3ccco3)CC2)nc2c1c(=O)n(C)c(=O)n2C", "Potency": "inconclusive [inhibitor, single point]"}, {"smiles": "O=C(CSc1nncn1-c1ccccc1)c1c[nH]c2ccccc12", "Potency": "inconclusive [inhibitor, single point]"}, {"smiles": "CC(=O)c1ccc2c(c1)OCCOCCOCCOCCO2", "Potency": "inconclusive [inhibitor, single point]"}, {"smiles": "CCOC(=O)CNC(=O)C(Cc1ccccc1)NC(=O)OCc1ccccc1", "note": "(stereo not drawn) (Cbz-[ξF]-Gly-OEt)", "Potency": "inconclusive [inhibitor, partial curve, poor fit]"}, {"smiles": "Cc1ccc(C(=O)Oc2ccc(C(=O)COC(=O)C3CC(=O)N(Cc4ccco4)C3)cc2)cc1", "note": "(stereo not drawn)", "Potency": "inconclusive [inhibitor, partial curve]"}, {"smiles": "Cc1sc(NC(=O)CN2CCCC2)nc1-c1ccc2c(c1)CCN2C(=O)c1ccc(F)cc1", "Potency": "inconclusive [inhibitor, full curve]"}, {"smiles": "NC(=S)Nc1ncc(CCN2CCOCC2)c(-c2ccc(F)cc2)n1", "Potency": "inconclusive [inhibitor, single point]"}, {"smiles": "CCc1ccc(NC(=O)COC(=O)CC2CCCC2)cc1", "activity change, negative = inhibition": "inconclusive: -18.2% [inhibitor]"}, {"smiles": "CCN(CC)CC(=O)c1c(N)n(Cc2ccccc2)c(=O)n(C)c1=O", "activity change, negative = inhibition": "inconclusive: -12% [inhibitor]"}, {"smiles": "O=C(O)c1ccc2c(c1)C(=O)N(CCc1c[nH]c3ccccc13)C2=O", "Potency": "inactive"}, {"smiles": "COC(=O)c1cc(S(=O)(=O)NCc2ccccc2OC)cn1C", "Potency": "inconclusive [inhibitor, single point]"}, {"smiles": "CCOC(=O)Cc1cnc(NC(=O)CSc2nc(C(C)C)cc(=O)[nH]2)s1", "Potency": "inactive"}, {"smiles": "CCOc1cc(/C=N/NC(=O)c2ccncc2)ccc1OC(=O)c1ccccc1", "Potency": "inconclusive [inhibitor, full curve, poor fit]"}, {"smiles": "Cc1cccc2c(C(=O)Nc3ccc(Br)cc3)cc(-c3ccccn3)nc12", "Potency": "inconclusive [inhibitor, full curve, poor fit]"}, {"smiles": "C=CCOc1ccccc1C1C2=C(CC(C)(C)CC2=O)Nc2c1c(=O)n(C)c(=O)n2C", "note": "(stereo not drawn)", "Potency": "inactive"}, {"smiles": "CC(C)(C)NC(=O)C(c1ccc(C#N)cc1)n1c(=O)c(-c2ccco2)nc2ccccc21", "note": "(stereo not drawn)", "Potency": "inconclusive [inhibitor, single point]"}, {"smiles": "CN1CCN(C(=O)c2c(NC(=O)c3ccco3)sc3c2CCC(C(C)(C)C)C3)CC1", "note": "(stereo not drawn)", "Potency": "inactive"}, {"smiles": "CC(C)(C)[C@@H]1C=C(C(=O)Nc2ccccc2)O[C@H](OCc2ccc(CO)cc2)C1", "Potency": "inconclusive [inhibitor, single point]"}, {"smiles": "O=C(Cc1ccccc1)Nc1ccc(NC(=O)c2cccs2)cc1Cl", "Potency": "inconclusive [inhibitor, partial curve]"}, {"smiles": "CCc1cc2ccc(C)cc2nc1SCC(=O)Nc1cc(OC)c(OC)cc1C(=O)O", "Potency": "inconclusive [inhibitor, partial curve]"}, {"smiles": "CC(=O)c1cccc(OC(=O)C2=CC=CN3CCS(=O)(=O)N=C23)c1", "Potency": "inconclusive [inhibitor, full curve, poor fit]"}, {"smiles": "C=CCOC(=O)C(=O)/C=C/c1csc2ccccc12", "Potency": "inactive"}, {"smiles": "Cc1cc(C)n2nc(C(=O)OCC(=O)Nc3ccc(C)c(F)c3)nc2n1", "Potency": "inconclusive [inhibitor, single point]"}, {"smiles": "CCOc1ccc2oc(C(=O)OC(C(=O)NC(N)=O)C(C)C)c(C)c2c1", "note": "(stereo not drawn)", "Potency": "inconclusive [inhibitor, partial curve]"}, {"smiles": "c1ccc(CSc2nnc(-c3ccco3)c(-c3ccco3)n2)cc1", "Potency": "inconclusive [inhibitor, partial curve]"}, {"smiles": "Cc1c(CCC(=O)O)c(=O)oc2cc3occ(-c4ccc(Cl)cc4)c3cc12", "Potency": "inactive"}, {"smiles": "OC(c1ccccc1)(c1nc(-c2ccccc2)cs1)C(F)(F)F", "note": "(stereo not drawn)", "Potency": "inconclusive [inhibitor, single point]"}, {"smiles": "O=c1c(-c2ccc(F)cc2)coc2cc(O)ccc12", "Potency": "inactive"}, {"smiles": "COc1ccc(Cn2c(=O)[nH]c3cc(C(=O)N4CCN(Cc5ccccc5)CC4)ccc3c2=O)cc1", "Potency": "inactive"}, {"smiles": "COc1ccc(N(C(=O)c2ccco2)C(C(=O)NC2CCCC2)c2ccc(OC)c(OC)c2)cc1", "note": "(stereo not drawn)", "Potency": "inactive"}, {"smiles": "COc1ccc(S(=O)(=O)N2CCN(C(=O)c3ccco3)CC2)c(C)c1C", "Potency": "inactive"}, {"smiles": "O=C(Nc1cc([N+](=O)[O-])ccc1F)C1CC1", "Potency": "inconclusive [inhibitor, partial curve, poor fit]"}, {"smiles": "O=C(Nc1ccc(N2CCOCC2)cc1N1CCOCC1)c1ccc([N+](=O)[O-])cc1", "Potency": "inactive"}, {"smiles": "COc1ccc2c(c1)C(=O)Cc1ccccc1O2", "Potency": "inconclusive [inhibitor, partial curve, poor fit]"}, {"smiles": "COc1ccc(O)c(/C=N/Nc2nc(C)cc(-c3ccccc3)n2)c1", "activity change, negative = inhibition": "inconclusive: -12% [inhibitor]"}, {"smiles": "Cc1ccc(S(=O)(=O)NC(=O)Nc2ccc(N(C)C)cc2)cc1", "Potency": "inactive"}, {"smiles": "Cc1cccc(NC(=O)CN(c2ccc(F)cc2)S(C)(=O)=O)c1", "Potency": "inconclusive [inhibitor, partial curve]"}, {"smiles": "O=C1c2ccccc2C(=O)N1c1nc(-c2cccs2)cs1", "Potency": "inconclusive [inhibitor, full curve]"}, {"smiles": "CC1C(c2ccccc2)C(C#N)(C#N)C2(C#N)C(=O)NC1(N)C2C", "note": "(stereo not drawn)", "Potency": "inconclusive [inhibitor, partial curve, poor fit]"}, {"smiles": "CC(C)(C)OC(=O)N1C[C@H](O)C[C@H]1C(=O)OCC(=O)c1ccc([N+](=O)[O-])cc1", "Potency": "inconclusive [inhibitor, single point]"}]}]}
